Reference: PubChem BioAssay AID588342 (National Center for Advancing Translational Sciences (NCATS), 2011)
Screen size: about 360,000 compounds; about 25,000 (6.9%) were called active. The shares of active, inactive and inconclusive entries below differ from those in the screen. The call rests on the fitted dose curve; in most records, active means well fitted inhibition curve with a large enough effect; inconclusive means small, poorly fitted or top-dose-only effect; inactive means flat fitted curve, though single readings scatter. Where the call is inconclusive, the potency comes from a doubtful curve fit.

target: Luciferin 4-monooxygenase (Photinus pyralis) (UniProt P08659); assay: qHTS profiling assay for firefly luciferase inhibitor/activator using purifed enzyme and Km concentrations of substrates (counterscreen for miR-21 project); details: purified FLuc, luminescence inhibition; series mostly up to 57.5 µM; activity change, negative = inhibition: at the top concentration; further: nearly all actives have a fitted effect of over 55% in size;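 on activity change, negative = inhibition: plate controls were vehicle for no effect and reference inhibitor for full effect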
In short: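 Purified P. pyralis luciferase, 10 nM final, with Km-level 10 uM D-luciferin and 10 uM ATP in 50 mM Tris acetate pH 7.5, 10 mM Mg acetate, 0.01% Tween-20, 0.05% BSA; 6-point qHTS titration about 60 µM downward; luminescence read.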
Potency means the concentration at half of the fitted maximal effect; tags describe the fitted curve by direction and shape.

Sequence of UniProt P08659 (P08659 whole entry, looked up): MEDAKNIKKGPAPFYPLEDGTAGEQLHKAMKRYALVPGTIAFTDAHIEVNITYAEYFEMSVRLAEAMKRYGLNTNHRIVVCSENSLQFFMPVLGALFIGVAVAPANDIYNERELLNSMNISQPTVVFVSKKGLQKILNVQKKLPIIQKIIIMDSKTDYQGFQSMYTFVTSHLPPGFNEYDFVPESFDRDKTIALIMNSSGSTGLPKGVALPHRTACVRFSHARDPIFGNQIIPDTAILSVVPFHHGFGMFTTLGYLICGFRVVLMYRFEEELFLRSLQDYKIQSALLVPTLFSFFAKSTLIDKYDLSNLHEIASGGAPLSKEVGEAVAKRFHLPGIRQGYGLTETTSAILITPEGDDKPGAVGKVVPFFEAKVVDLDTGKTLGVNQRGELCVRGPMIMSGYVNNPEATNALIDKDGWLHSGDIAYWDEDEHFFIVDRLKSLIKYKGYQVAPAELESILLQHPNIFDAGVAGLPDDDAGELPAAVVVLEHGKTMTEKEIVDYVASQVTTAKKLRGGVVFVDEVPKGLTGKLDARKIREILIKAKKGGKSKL

Row | Structure (SMILES) | Potency | activity change, negative = inhibition
1 | COc1ccc2nc(-c3ccccc3)cc(C(=O)N3CCC3)c2c1 | inconclusive: 23.9 µM [inhibitor, single point] | 
2 | O=C(/C=C/c1ccc(F)cc1)N1CCN(c2ccccn2)CC1 | inconclusive: 26.9 µM [inhibitor, single point] | 
3 | CCCOc1ccc2c(CC)cc(=O)oc2c1C | inconclusive: 23.9 µM [inhibitor, single point] | 
4 | CCOC(=O)c1ccc(N2C(=O)c3n[nH]c(-c4ccco4)c3C2c2cccc([N+](=O)[O-])c2)cc1 (centres undefined) |  | inactive: -2.36%
5 | CCN(CC)S(=O)(=O)c1ccc(/C=C/C(=O)OCC(=O)N(C)C)cc1 |  | inactive: -1.74%
6 | CCc1cc(C(=O)Nc2ccc(OC)nc2)sc1C | active: 21.3 µM | 
7 | CC(=O)n1c2ccccc2c2nc3ccccc3nc21 | inconclusive: 33.8 µM [inhibitor, partial curve, poor fit] | 
8 | O=C(Nc1nc2ccccc2[nH]1)C1CC(=O)N(c2ccc3c(c2)OCCO3)C1 (centres undefined) | inconclusive: 37.9 µM [inhibitor, partial curve, poor fit] | 
9 | COc1ccc(NS(=O)(=O)c2cccc3nsnc23)cc1Cl |  | inactive: 4.27%
10 | CCOC(=O)c1csc(NC(=O)c2ccc(OCC)cc2)n1 | active: 6.75 µM | 
11 | COc1cccc(C(=O)Nc2c(C(N)=O)oc3ccccc23)c1 | inconclusive: 21.3 µM [inhibitor, single point] | 
12 | O=C(NS(=O)(=O)Oc1ccc(Cl)cc1)OC[C@@H]1CCCN2CCCC[C@H]12 |  | inactive: -0.818%
13 | COc1cc(/C(C)=N/NC(=O)CSc2nc3ccccc3[nH]2)ccc1O | inconclusive: 23.9 µM [inhibitor, single point] | 
14 | CCCOc1ccc(CNC(=O)CCCN2C(=O)CSc3c2c(C)nn3-c2ccccc2)cc1 | inconclusive: 10.7 µM [inhibitor, partial curve, poor fit] | 
15 | O=C(NCc1cccnc1)c1ccc(-c2cccc(Cl)c2Cl)o1 | inconclusive: 30.1 µM [inhibitor, single point] | 
16 | Brc1ccc(-c2csc(NNC3=NCCCCC3)n2)cc1 | active: 19 µM | 
17 | Cc1cs/c(=N\N=C\c2ccc(O)cc2)n1Cc1ccco1 | inconclusive: 15.1 µM [inhibitor, partial curve, poor fit] | 
18 | c1ccc2oc(-c3ccn[nH]3)cc2c1 | active: 8.49 µM | 
19 | O=C(Nc1nc(-c2ccccc2)ns1)c1ccncc1 | active: 10.7 µM | 
20 | O=C(c1ccc(Br)cc1)N1CCC(c2nc3ccccc3s2)CC1 |  | inactive: -15.6%
21 | CCOC(=O)CC1CCCCN1C(=O)CCCn1nnnc1CN1CCOCC1 (centres undefined) |  | inactive: -1.01%
22 | CCOc1ccc(CNC(=O)C(C)n2ncn3cccc3c2=O)cc1 (centres undefined) | inconclusive: 21.3 µM [inhibitor, partial curve, poor fit] | 
23 | CC(=O)c1sc(-c2ccc(F)cc2F)nc1C | inconclusive: 23.9 µM [inhibitor, partial curve, poor fit] | 
24 | Clc1ccc(-c2nc3ccccc3[nH]2)cn1 | active: 19 µM | 
25 | Cc1ccc2nc(N(CCCN(C)C)C(=O)c3cc4ccccc4oc3=O)sc2c1 | inconclusive: 8.49 µM [inhibitor, single point] | 

Row | Structure (SMILES) | Potency | activity change, negative = inhibition
26 | CCC1=NN=C(c2ccc(F)cc2)C(c2c[nH]c3ccccc23)N1O (centres undefined) | inconclusive: 23.9 µM [inhibitor, single point] | 
27 | O=C(COc1ccc(Cl)cc1)Nc1cccc(-c2ccc3nncn3n2)c1 | inconclusive: 26.9 µM [inhibitor, partial curve] | 
28 | CCOc1cc(/C=N/O)ccc1OCc1ccc(C)cc1 | inconclusive: 19 µM [inhibitor, partial curve] | 
29 | O=C(N/N=C/c1ccc(N2CCCC2)c([N+](=O)[O-])c1)c1cccnc1 | inconclusive: 19 µM [inhibitor, partial curve, poor fit] | 
30 | CCOC(=O)c1c(N)sc2c(OCC)c(Br)ccc12 | inconclusive: 37.9 µM [inhibitor, single point] | 
31 | COC(=O)/C(=C/c1c[nH]c2ccccc12)[N+](=O)[O-] | active: 19 µM | 
32 | Cc1cccc(N2CC(C(=O)Nc3ccc(S(=O)(=O)NCC4CCCO4)cc3)CC2=O)c1C (centres undefined) |  | inactive: -2.49%
33 | Cc1cccc2nc(CSc3nnc4ccccn34)cn12 | active: 10.7 µM | 
34 | COc1ccc(-c2cc(C(=O)Nc3sc4c(c3C#N)CCCC4)c3ccccc3n2)cc1OC | inconclusive: 10.7 µM [inhibitor, partial curve] | 
35 | CCn1c(SCC(=O)Nc2nc3ccc(OC)cc3s2)nnc1-c1ccoc1C | active: 10.7 µM | 
36 | COc1cccc(NC(=O)Cc2ccc(NC(=O)N3CCCCc4ccccc43)cc2)c1 | inconclusive: 15.1 µM [inhibitor, partial curve, poor fit] | 
37 | Cc1ccccc1Cn1c(=O)n(CCCCC(=O)NCc2ccc3c(c2)OCO3)c(=O)c2ccccc21 |  | inactive: 1.95%
38 | CCOC(=O)c1c(-c2ccccc2)oc2ccc(OCc3ccc(C)cc3)cc12 |  | inactive: -2.93%
39 | Cc1cc(C(=O)Nc2sc3c(c2C#N)CCCCC3)cs1 | active: 0.953 µM | 
40 | CN(C)c1ccc(/C=N/NC(=O)CN(c2cccc(Cl)c2)S(C)(=O)=O)cc1Br | inconclusive: 23.9 µM [inhibitor, partial curve, poor fit] | 
41 | O=C(Nc1nnc(N2CCCC2)s1)Nc1cc(F)ccc1F |  | inactive: -10.2%
42 | C=CCn1c(C)cc(C(=O)COC(=O)/C=C/c2cccc(OC)c2)c1C | inconclusive: 33.8 µM [inhibitor, single point] | 
43 | COc1ccc(-c2cc(C(=O)N3CC(C)CC(C)C3)c3ccccc3n2)cc1OC (centres undefined) | inconclusive: 21.3 µM [inhibitor, partial curve, poor fit] | 
44 | Cc1csc(Nc2ccccc2)n1 | inconclusive: 26.9 µM [inhibitor, partial curve] | 
45 | O=C(Nc1cccc(C(=O)N2CCCc3ccccc32)c1)c1ccccc1 | inconclusive: 37.9 µM [inhibitor, single point] | 
46 | CCn1nnc(NC(=O)c2ccc(-c3ccccc3[N+](=O)[O-])o2)n1 | inconclusive: 26.9 µM [inhibitor, single point] | 
47 | CN(C)C(=O)c1ccc(NC(=O)CSc2nnc(-c3ccc4c(c3)OCO4)o2)cc1 |  | inactive: 0.563%
48 | Cc1nn2c3c(cnc2c1-c1ccc(F)cc1)C(=O)CC(c1ccccc1)C3 (centres undefined) |  | inactive: -2.29%
49 | O=C(CSc1nnc(CNC(=O)c2c(F)cccc2F)o1)c1ccccc1 |  | inactive: -9.24%
50 | CN(C)/C=C(/C(=O)c1ccc(Cl)cc1)S(=O)(=O)c1ccccc1 | inconclusive: 30.1 µM [inhibitor, partial curve, poor fit] | 

Row | Structure (SMILES) | Potency | activity change, negative = inhibition
51 | CC(C)Cn1nc(NC(=O)c2cccs2)c2cc3ccccc3nc21 | inconclusive: 26.9 µM [inhibitor, single point] | 
52 | Cc1ccc(SCC(=O)NCCSC(C)(C)C)cc1 | inconclusive: 30.1 µM [inhibitor, single point] | 
53 | O=C(NCC1CCCO1)c1cn(-c2ccccc2)nc1-c1ccc(F)cc1 (centres undefined) | active: 10.7 µM | 
54 | CC(=O)c1ccc(NC(=O)c2ccn(C(=O)OCC(C)C)n2)cc1 | active: 19 µM | 
55 | COc1ccc(-c2cc(C(F)(F)F)nc(SCC(=O)N3CCCCC3)n2)cc1 |  | inactive: -2.5%
56 | CCN(c1ccccc1)S(=O)(=O)c1ccc(C(=O)Nc2nnc(CSC)o2)cc1 | inconclusive: 15.1 µM [inhibitor, partial curve] | 
57 | CCCCNC(=O)c1cc(-c2ccc(F)cc2)on1 | active: 9.53 µM | 
58 | CCCCOc1ccc(NC(=O)c2cc3c(n(-c4ccc(Cl)cc4)c2=O)CCCC3=O)cc1 |  | inactive: -1.22%
59 | COc1ccc(-c2csc(NC(=O)CN3C(=O)CCC3=O)n2)c(OC)c1 | inconclusive: 23.9 µM [inhibitor, single point] | 
60 | CCOC(=O)c1c(C)oc2nc(C)nc(NCCCN3CCN(c4ccccc4OC)CC3)c12 |  | inactive: -7.73%
61 | CSCCC(N=C1NS(=O)(=O)c2ccccc21)C(=O)N1CCCC(C(N)=O)C1 (centres undefined) | inconclusive: 37.9 µM [inhibitor, partial curve, poor fit] | 
62 | COC(=O)c1ccc(NC(=O)CC2C(=O)N(c3cccc(C)c3)C(=O)N2Cc2ccco2)cc1 (centres undefined) |  | inactive: -1.72%
63 | O=C(Nc1ccccc1F)c1cc(Cl)sc1Cl | inconclusive: 19 µM [inhibitor, single point] | 
64 | Cc1ccccc1-c1nc2sc(C)c(C)c2c(=O)o1 | active: 7.57 µM | 
65 | COc1cccc(C(=O)Nc2nc3nc(C)c(Cc4ccccc4)c(=O)n3[nH]2)c1 | inconclusive: 10.7 µM [inhibitor, partial curve] | 
66 | Cc1ccc(C(=O)CCC(=O)Nc2ccccc2C)cc1C |  | inactive: -8.41%
67 | Cc1cccc(N2C(=O)C(CC(=O)Nc3ccccc3)N(C3CCCCC3)C2=O)c1 (centres undefined) |  | inactive: -0.565%
68 | Cc1ccc(N2C(=O)CC(Nc3cccc4ccccc34)C2=O)cc1 (centres undefined) | inconclusive: 21.3 µM [inhibitor, partial curve, poor fit] | 
69 | FC(F)(F)c1ccc(NCCc2ccccc2)nc1 | inconclusive: 23.9 µM [inhibitor, partial curve, poor fit] | 
70 | CCCN=Cc1sc2ccc(OCC)cc2c1O | active: 12 µM | 
71 | Nc1[nH][nH]c(=O)c1N=Nc1ccc2c(c1)OCO2 | active: 13.5 µM | 
72 | O=c1[nH]c2ccccc2c2nc(-c3cccc(S(=O)(=O)N4CCCC4)c3)nn12 | inconclusive: 9.53 µM [inhibitor, partial curve] | 
73 | COc1ccc(Cc2nnc(NC(=O)Nc3ccc(C)cc3)s2)cc1OC | inconclusive: 15.1 µM [inhibitor, partial curve] | 
74 | CCOc1ccccc1CNC(=O)c1ccc2nc(N3CCC(C)CC3)sc2c1 | inconclusive: 9.53 µM [inhibitor, partial curve] | 
